The text below walks through data of the supplement of paper PMC7238544.

Structures can show the parent of a compound that is named as a salt. ± gives the standard deviation of the averaged measurements. The list shows a part of the results.

Common to all, as to conditions: priming compound concentration 100 µM
In test [1] the test system is hAMSC donor 1. The test can be described thus: Hoechst total cell count ratio vs vehicle control; higher = more cells (less toxicity).
Test [2] has as its system hAMSC donor 2. The test is described as above.
Test [3] concerns hAMSC donor 1. Description: transgenic luciferase activity (RLU/mg protein) fold change vs vehicle control (ratio); higher = more transgene expression.
The test system of test [4] is hAMSC donor 1. Description: transfection efficiency (EGFP+ cells / Hoechst count) fold change vs vehicle control (ratio); higher = enhanced transfection.
Test [5] concerns hAMSC donor 2. The description is as above.
Test [6] has as its system hAMSC donor 2. The test can be described thus: transgenic luciferase activity (RLU/mg protein) fold change vs vehicle control (ratio); hAMSC are human adipose-derived mesenchymal stem cells given an EGFP-luciferase plasmid by lipofection; higher = more transgene expression.
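Throughout, for Hoechst total cell count ratio vs vehicle control: compound added 30 min before Lipofectamine 3000 lipoplex delivery, triplicate-well means expressed against DMSO vehicle control wells of the same 96-well plate.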
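Throughout, for transfection efficiency (EGFP+ cells / Hoechst count) fold change vs vehicle control: compounds added 30 min before Lipofectamine 3000 lipoplex transfection, triplicate means relative to DMSO vehicle wells on the same plate, luciferase RLU normalized to BCA total protein.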
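Throughout, for transgenic luciferase activity (RLU/mg protein) fold change vs vehicle control: compounds in DMSO added 30 min before Lipofectamine 3000 transfection of pEGFP-Luc in 96-well plates, values are means of triplicate wells over DMSO vehicle wells on the same plate.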

For `O=C(CCCN1CC=C(n2c(=O)[nH]c3ccccc32)CC1)c1ccc(F)cc1` [Droperidol], the “Hoechst total cell count ratio” value in test [1] stood at 1.53 ± 0.13; in test [2], 1.16 ± 0.066. Moreover, the transgenic luciferase activity in test [3] was determined as 0.142 ± 0.02. Besides, the transfection efficiency in test [4] is 0.704 ± 0.081; in test [5] it was 0.64 ± 0.068.

`CCc1cccc2c3c([nH]c12)C(CC)(CC(=O)O)OCC3` (stereo unspecified) [Etodolac]: the “Hoechst total cell count ratio” value in test [1] worked out at 1.14 ± 0.069; in test [2] it was 1.11 ± 0.08. Also, the transgenic luciferase activity in test [3] was 0.519 ± 0.07. The figures for the transfection efficiency in test [4] and in test [5] were 0.951 ± 0.22 and 0.8 ± 0.14, respectively.

For the molecule `CCc1c2c(nc3ccc(OC(=O)N4CCC(N5CCCCC5)CC4)cc13)-c1cc3c(c(=O)n1C2)COC(=O)[C@]3(O)CC` [Irinotecan hydrochloride], the “Hoechst total cell count ratio” value in test [1] is 1.34 ± 0.13; in test [2] it was 0.454 ± 0.011. Besides, in test [3], the transgenic luciferase activity is 0.0843 ± 0.034.

Regarding `OCc1cc(C(O)CNCCCCCCOCCCCc2ccccc2)ccc1O` (stereo unspecified) [Salmeterol], the results for the “Hoechst total cell count ratio” value in test [1] and in test [2] were 0.109 ± 0.084 and 0.072 ± 0.019, respectively. In addition, in test [3], the transgenic luciferase activity came out at 0.0165 ± 0.018. The results for the transfection efficiency in test [4] and in test [5] were 0.469 ± 0.41 and 0, respectively.

With `C[N+](C)(C)C[C@H](O)CC(=O)[O-]` [L-Carnitine inner salt], the figures for the “Hoechst total cell count ratio” value in test [1] and in test [2] were 1.17 ± 0.026 and 1.26 ± 0.29, respectively. Further, in test [3], the transgenic luciferase activity is 0.686 ± 0.17. Further, the figures for the transfection efficiency in test [4] and in test [5] were 0.966 ± 0.41 and 0.836 ± 0.28, respectively.

Consider `CN(CCOc1ccc(CC2SC(=O)NC2=O)cc1)c1ccccn1` (stereo unspecified) [Rosiglitazone maleate], for which the “Hoechst total cell count ratio” value amounted to 1.66 ± 0.17 in test [1] and 1.16 ± 0.077 in test [2]. Also, the transgenic luciferase activity in test [3] is 1.91 ± 0.95. In addition, the transfection efficiency is 1.23 ± 0.09 in test [4] and 1.45 ± 0.16 in test [5].

Consider `O=C1CCc2ccc(OCCCCN3CCN(c4cccc(Cl)c4Cl)CC3)cc2N1` [Aripiprazole], for which the “Hoechst total cell count ratio” value in test [1] worked out at 0.0727 ± 0.035; in test [2], 0.061 ± 0.023. Besides, the transgenic luciferase activity in test [3] was 0.0233 ± 0.033; in test [6], 0.00155 ± 0.0019. In addition, the transfection efficiency in test [5] turned out to be 1.95 ± 0.37.

As for `CCn1cc(C(=O)O)c(=O)c2cc(F)c(N3CCN(C)CC3)cc21` [Pefloxacin mesylate], the “Hoechst total cell count ratio” value in test [1] was 1.63 ± 0.25; in test [2], 1.01 ± 0.16. The transgenic luciferase activity in test [3] came out at 0.497 ± 0.31. The transfection efficiency in test [4] was 0.678 ± 0.082; in test [5] it was 1.13 ± 0.2.

For the molecule `COc1ccc(CCN(C)CCCC(C#N)(c2ccc(OC)c(OC)c2)C(C)C)cc1OC` (stereo unspecified) [Verapamil hydrochloride], the transgenic luciferase activity in test [3] stood at 1.16 ± 0.27; in test [6], 0.814 ± 0.21. In addition, the transfection efficiency stood at 1.83 ± 0.069 in test [4] and 1 ± 0.053 in test [5].

Consider `COc1ccc(CC2c3cc(OC)c(OC)cc3CC[N+]2(C)CCC(=O)OCCCCCOC(=O)CC[N+]2(C)CCc3cc(OC)c(OC)cc3C2Cc2ccc(OC)c(OC)c2)cc1OC` (stereo unspecified) [Atracurium besylate], for which the “Hoechst total cell count ratio” value worked out at 0.0353 ± 0.0095 in test [1] and 0.162 ± 0.13 in test [2]. Also, the values for the transgenic luciferase activity in test [3] and in test [6] were 0.00475 ± 0.0013 and 0.000616 ± 2.1e-05, respectively. Further, in test [5], the transfection efficiency was found to be 0.846 ± 0.44.

Regarding `CCCc1c(OCCCCc2nnn[nH]2)ccc(C(C)=O)c1O`, the “Hoechst total cell count ratio” value in test [1] worked out at 1.55 ± 0.15; in test [2] it was 1.28 ± 0.27. The transgenic luciferase activity in test [3] was determined as 0.752 ± 0.053. In addition, the transfection efficiency in test [4] stood at 1.11 ± 0.11; in test [5] it was 1.2 ± 0.33.

For `C[n+]1ccccc1/C=N/O` [Pralidoxime chloride], the “Hoechst total cell count ratio” value was found to be 1.19 ± 0.16 in test [1] and 1.22 ± 0.018 in test [2]. In addition, the transgenic luciferase activity in test [3] was 0.583 ± 0.073. The transfection efficiency amounted to 0.839 ± 0.28 in test [4] and 0.861 ± 0.11 in test [5].

For the molecule `CC(C(=O)O)c1cccc(C(=O)c2ccccc2)c1` (stereo unspecified) [Ketoprofen], the transgenic luciferase activity in test [3] amounted to 0.635 ± 0.079; in test [6] it was 0.71 ± 0.12. The transfection efficiency in test [4] stood at 1.35 ± 0.36; in test [5] it was 0.868 ± 0.083.

As to `COc1c2occc2cc2ccc(=O)oc12` [Methoxsalen], the results for the “Hoechst total cell count ratio” value in test [1] and in test [2] were 1.66 ± 0.14 and 1.39 ± 0.29, respectively. In addition, in test [3], the transgenic luciferase activity worked out at 0.492 ± 0.27. Moreover, the values for the transfection efficiency in test [4] and in test [5] were 1.14 ± 0.22 and 0.671 ± 0.19, respectively.
